Measurements reported in PubChem BioAssay AID588456 (National Center for Advancing Translational Sciences (NCATS), 2011).
About 55 (0.01%) of roughly 390,000 compounds were called active. The inconclusive results got no clear call from the source; some entries with a clear call stand among them for comparison. Calls come from the whole dose curve; as a rule, active = well fitted inhibition curve with a large enough effect; inconclusive = small, poorly fitted or top-dose-only effect; inactive = no such curve, though single readings can be large or run the other way. Where the call is inconclusive, the potency comes from a doubtful curve fit.

biological target: Thioredoxin reductase 1, cytoplasmic (Rattus norvegicus) (UniProt O89049); assay: qHTS Assay for Substrates of Mammalian Selenoprotein Thioredoxin Reductase 1 (TrxR1): qHTS; settings: purified TrxR1 substrate turnover, NADPH consumption readout; series mostly up to 114 µM; note: nearly all actives have a fitted effect of over 50% in size
Chain of UniProt O89049 (O89049 whole entry, looked up): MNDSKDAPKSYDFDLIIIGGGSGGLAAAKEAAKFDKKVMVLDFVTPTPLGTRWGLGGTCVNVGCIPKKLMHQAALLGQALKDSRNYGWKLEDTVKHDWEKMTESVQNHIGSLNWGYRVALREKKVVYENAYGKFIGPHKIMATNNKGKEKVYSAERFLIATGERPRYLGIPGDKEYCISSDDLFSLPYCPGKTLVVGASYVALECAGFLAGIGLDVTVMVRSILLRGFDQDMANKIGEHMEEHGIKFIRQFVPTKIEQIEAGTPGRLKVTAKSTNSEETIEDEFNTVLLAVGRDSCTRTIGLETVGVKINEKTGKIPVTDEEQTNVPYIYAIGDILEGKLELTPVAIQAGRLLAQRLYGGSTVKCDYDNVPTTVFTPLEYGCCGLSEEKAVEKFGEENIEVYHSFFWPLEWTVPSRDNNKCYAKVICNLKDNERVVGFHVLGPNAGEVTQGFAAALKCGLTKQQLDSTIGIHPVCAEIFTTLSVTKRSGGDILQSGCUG
How it was run: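 Rat TrxR1, dispensed at 90 nM, was prereduced with 400 uM NADPH (final) for 5 min at ~22 deg C, then incubated with compound 15 min before 400 uM selenite. A first-read NADPH fluorescence drop versus no-compound background flagged substrates.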
Potency is the fitted concentration of half-maximal effect; tags give direction and shape of the fitted curve.

SMILES | Potency
COc1ccccc1CN1C2CCCC1CC(NC(=O)/C=C/c1ccccc1)C2 (stereo not drawn) | inactive
Cc1ccc(C)c(Cn2c3ccccc3c3cnn(CC(=O)NC(C)c4ccccc4)c(=O)c32)c1 (stereo not drawn) | inactive
Nc1c(/C=C2/C=CC(=O)C(O)=C2)c(=O)nc2sc(CC(=O)N3CCOCC3)nn12 | inconclusive: 79.4 µM [inhibitor, partial curve, poor fit]
CCc1sc(C(=O)NCCc2ccc(S(N)(=O)=O)cc2)cc1C | inconclusive: 89.1 µM [inhibitor, single point]
Cc1nc2nc(SCC(=O)NCCCN3CCCCCC3)nn2c(C)c1Cc1ccccc1 | inconclusive: 89.1 µM [inhibitor, partial curve, poor fit]
CCCC[C@H]1COCCS(=O)(=O)N1Cc1ccc(C)cc1 | inconclusive: 2.51 µM [inhibitor, partial curve, poor fit]
COc1ccc(/C=C/C(=O)c2ccc3c(c2)OCO3)cc1OC | inactive
COc1ccc(/C=C2\CC/C(=C\c3ccc(OC)c(OC)c3)C2=O)cc1OC | inconclusive: 79.4 µM [inhibitor, partial curve, poor fit]
CCc1ccc(/C=C2/SC(=S)NC2=O)cc1 | inconclusive: 42.3 µM [inhibitor, partial curve, poor fit]
COc1ccc(/C=C2\SC(=S)N(C(C(=O)O)c3ccccc3)C2=O)c(OC)c1 (stereo not drawn) | inconclusive: 31.6 µM [inhibitor, single point]
O=C1NN(c2ccc(Cl)c(Cl)c2)C(=O)/C1=C/c1ccc(-c2ccccc2C(=O)O)o1 | inconclusive: 79.4 µM [inhibitor, partial curve, poor fit]
CCOc1cccc(C(=O)NC2=NCCS2)c1 | inactive
CCN(Cc1ccccc1)S(=O)(=O)c1ccc(F)cc1 | inconclusive: 89.1 µM [inhibitor, partial curve, poor fit]
S=C(NCCSCc1ccc(Cl)cc1Cl)Nc1ccccc1 | inactive
C/C(CC(C)C)=N\Nc1ccc(S(N)(=O)=O)cc1[N+](=O)[O-] | inconclusive: 89.1 µM [inhibitor, single point]
CC(C)(C)NC(=O)COC(=O)c1cncc(Br)c1 | inactive
Cc1ccc(NC(=O)Cn2nc(-c3ccccc3)nc(Cc3ccccc3)c2=O)cc1 | inconclusive: 39.8 µM [inhibitor, single point]
CCc1sc(C(C2C(=O)CC(C)(C)CC2=O)C2C(=O)CC(C)(C)CC2=O)cc1[N+](=O)[O-] | inactive
CCOC(=O)[C@H]1[C@H]2COc3ccccc3[C@@H]2N2C(=O)c3ccc(Cl)cc3NC(=O)[C@@]12C | inconclusive: 2.82 µM [inhibitor, partial curve, poor fit]
O=c1c(C(c2ccc(Br)cc2)c2c(O)nc3n(c2=O)CCCS3)c(O)nc2n1CCCS2 | inconclusive: 100 µM [inhibitor, partial curve, poor fit]
O=C(Nc1ccc(F)c(Cl)c1)C1CC(=O)n2c(nc3ccccc32)N1 (stereo not drawn) | inconclusive: 89.1 µM [inhibitor, single point]
COc1cc(-c2n[nH]c(=O)o2)cc(OC)c1OC | inactive

SMILES | Potency
Cc1ccccc1NS(=O)(=O)c1ccc(C)c(NS(C)(=O)=O)c1C | inconclusive: 100 µM [inhibitor, single point]
Cn1cc(S(=O)(=O)N2CCCCCC2)cc1C(=O)Nc1ccccc1F | inactive
COc1cc(CNC(=O)CCCCCCC(C)C)ccc1O | inconclusive: 17.8 µM [inhibitor, partial curve, poor fit]
O=[N+]([O-])c1ccc(O)c2ncccc12 | inconclusive: 79.4 µM [inhibitor, single point]
O=C(O)C(CCc1ccccn1)c1ccccc1 (stereo not drawn) | inconclusive: 100 µM [inhibitor, single point]
COc1cc(O)ccc1C=O | inactive
O=C(CNC(=O)c1ccc2c(c1)OCCO2)N=Nc1c(O)[nH]c2ccccc12 | inconclusive: 89.1 µM [inhibitor, partial curve, poor fit]
O=C(CCl)N(C/C=C/c1ccccc1)c1ccc2c(c1)OCCO2 | inactive
CCOc1ccc(N=Nc2c(=O)[nH]n3c(C)cc(C)nc23)cc1 | inconclusive: 56.2 µM [inhibitor, partial curve, poor fit]
CCN1CCN(C(=O)c2cnn(-c3ccc(F)cc3)c2-n2cccc2)CC1 | inconclusive: 8.91 µM [inhibitor, full curve]
CCCCSCCCNC(=O)c1ccc2c(c1)N(CC)C(=O)c1ccccc1S2=O (stereo not drawn) | inconclusive: 100 µM [inhibitor, partial curve, poor fit]
COc1ccc(OC)c(/C=C2\Oc3cc(OCC(=O)N4CCC[C@H]4C(=O)O)ccc3C2=O)c1 | inconclusive: 79.4 µM [inhibitor, partial curve, poor fit]
Cc1[nH]c2ccccc2c1N=Nc1cc(C(=O)O)cc(C(=O)O)c1 | inconclusive: 79.4 µM [inhibitor, single point]
Cc1cc(C)c2c(=O)n(CC(=O)NC3CCCC3)sc2n1 | inconclusive: 79.4 µM [inhibitor, single point]
O=C1CN(C(=O)c2c(F)cccc2F)C(c2ccc(F)cc2)c2cc(Br)ccc2N1 (stereo not drawn) | inconclusive: 89.1 µM [inhibitor, partial curve, poor fit]
CCN(CC)CCCC(C)n1c2nc(=O)[nH]c(=O)c-2nc2cc(Cl)ccc21 (stereo not drawn) | inconclusive: 50.1 µM [inhibitor, partial curve, poor fit]
Nc1c2c(nc3ccccc13)CCCC2 | inconclusive: 7.52 µM [inhibitor, full curve, poor fit]
NC(N)=NC(=O)c1nc(Cl)c(N2CCCCCC2)nc1N | inconclusive: 59.7 µM [inhibitor, partial curve, poor fit]
Brc1ccc(CSc2nnc(-c3ccccn3)n2Cc2ccco2)cc1 | inactive
Cc1sc2nc(CSc3ccccc3)nc(N3CCN(C)CC3)c2c1C | inactive
Cc1onc(-c2ccccc2)c1C(=O)N/N=C/c1cccs1 | inconclusive: 89.1 µM [inhibitor, single point]
